# Results reported in PubChem BioAssay AID1460 (National Center for Advancing Translational Sciences (NCATS), 2008).
# Screen size: about 270,000 compounds; about 5,800 (2.1%) were called active. This list was built around the results that the source calls inconclusive (neither active nor inactive); the mix of calls is not that of the screen. Calls come from the whole dose curve; as a rule, active = well fitted inhibition curve with a large enough effect; inconclusive = small, poorly fitted or top-dose-only effect; inactive = flat fitted curve, though single readings scatter. A potency beside an inconclusive call is a rough fit, not a confirmed value.
# Biological target: Microtubule-associated protein tau (Homo sapiens) (UniProt P10636)
# Assay: qHTS for Inhibitors of Tau Fibril Formation, Thioflavin T Binding; note: nearly all actives have a fitted effect of over 55% in size
# Settings: recombinant tau K18 P301L (four-repeat tau fragment), heparin-induced fibrillization, ThT fluorescence; series mostly up to 57.4 µM
# Procedure, shortened: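 K18 P301L tau (15 uM + 0.24 uM Alexa 594-tagged), heparin 20 uM, NaOAc pH 7, 6 h 37 C; ThT 30 uM, 1 h RT, ex 450/em 510 nm.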
# Potency is the fitted concentration of half-maximal effect; tags give direction and shape of the fitted curve.
# Chain of UniProt P10636 (P10636 whole entry, looked up): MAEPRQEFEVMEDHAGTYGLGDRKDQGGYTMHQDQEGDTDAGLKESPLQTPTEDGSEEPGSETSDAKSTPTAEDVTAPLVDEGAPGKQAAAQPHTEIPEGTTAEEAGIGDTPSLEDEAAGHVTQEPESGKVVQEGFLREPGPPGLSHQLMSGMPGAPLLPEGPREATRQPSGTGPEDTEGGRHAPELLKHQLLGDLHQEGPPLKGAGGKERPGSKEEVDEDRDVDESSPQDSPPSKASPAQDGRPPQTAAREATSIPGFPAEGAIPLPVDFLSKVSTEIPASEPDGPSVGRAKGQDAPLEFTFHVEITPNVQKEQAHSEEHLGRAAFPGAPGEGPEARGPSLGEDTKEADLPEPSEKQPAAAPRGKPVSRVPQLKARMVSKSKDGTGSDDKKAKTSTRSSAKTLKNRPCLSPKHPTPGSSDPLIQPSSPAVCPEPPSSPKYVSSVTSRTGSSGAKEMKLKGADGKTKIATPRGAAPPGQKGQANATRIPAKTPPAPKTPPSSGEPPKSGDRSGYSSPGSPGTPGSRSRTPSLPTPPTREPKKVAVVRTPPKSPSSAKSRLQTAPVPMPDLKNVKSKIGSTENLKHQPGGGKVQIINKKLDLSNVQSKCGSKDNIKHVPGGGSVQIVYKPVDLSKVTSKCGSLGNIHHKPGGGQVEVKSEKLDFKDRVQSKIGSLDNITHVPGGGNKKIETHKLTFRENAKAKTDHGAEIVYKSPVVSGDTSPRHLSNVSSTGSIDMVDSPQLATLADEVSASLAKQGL
row,Structure (SMILES),Potency
1,COC(=O)c1ccc(C23CC4(C2)[C@H](CN(Cc2ccc(C(F)(F)F)cc2)[C@@H]4c2ccccc2)C3c2ccc(C(F)(F)F)cc2)cc1 (some centres undefined),"inconclusive: 28.2 µM [inhibitor, single point]"
2,CC(C)C[C@@H](CC(=O)N[C@@H](CCCN)CC(=O)N[C@@H]1CCNC[C@H]1C(=O)N[C@H](CC(=O)N[C@@H](CCC(=O)O)CC(=O)O)CC(C)C)NC(=O)[C@@H]1CCCC[C@H]1N,inactive
3,COc1ccc(/C=N/Nc2nncc3ccccc23)c(OC)c1,"inconclusive: 7.94 µM [inhibitor, partial curve]"
4,COc1ccc(NC(=O)C(NS(=O)(=O)c2cccc3nsnc23)C(C)C)cc1OC (centres undefined),inactive
5,COc1ccccc1N=Cc1nc(-c2ccccc2)oc1OC(C)=O,active: 25.1 µM
6,COc1cccc(NC(=O)N2CCN(c3cccc(C)c3C)CC2)c1,"inconclusive: 14.1 µM [inhibitor, partial curve, poor fit]"
7,CCOC(=O)COc1ccc2c3c(c(=O)oc2c1C)CCC3,"inconclusive: 1.12 µM [inhibitor, full curve]"
8,COc1ccc(S(=O)(=O)Nc2cccc(-c3ccc(N4CCCCC4)nn3)c2)cc1F,inactive
9,O=C(N/N=C\c1ccc(Br)cc1)c1ccc(Cn2cccn2)o1,inactive
10,CC1CCCCN1C(=O)CSc1nc2ccsc2c(=O)n1Cc1ccccn1 (centres undefined),inactive
11,Cc1cccn2c(=O)c(C(=O)NC(C)c3ccccc3)c(O)nc12 (centres undefined),inactive
12,Clc1ccc(/C=N/c2c(-c3ccc(Cl)cc3)nc3n2CCS3)cc1,"inconclusive: 14.1 µM [inhibitor, partial curve]"
13,CCOc1ccc(Nc2oc(/C=C/c3ccc(OC)c(OC)c3)nc2C#N)cc1,"inconclusive: 2.51 µM [inhibitor, full curve, poor fit]"
14,Cc1nn(-c2ccccc2)c2[nH]c(=O)c(CNc3ccc4c(c3)OCCO4)cc12,"inconclusive: 15.8 µM [inhibitor, partial curve]"
15,O=[N+]([O-])c1ccc2c(c1)C(O)n1nc(-c3ccccc3)nc1S2 (centres undefined),"inconclusive: 0.126 µM [inhibitor, full curve, poor fit]"
16,CC(C)NC(=S)N/N=C/c1c[nH]c2ccccc12,"inconclusive: 11.2 µM [inhibitor, partial curve]"
17,COc1ccc2c(C)c(CCC(=O)NCc3ccccc3OC)c(=O)oc2c1,inactive
18,CCOC(=O)C1CCCN(C(=S)Nc2ccc(Nc3ccccc3)cc2)C1 (centres undefined),"inconclusive: 12.6 µM [inhibitor, partial curve]"
19,CCN1CCc2nc3sc(C(=O)Nc4ccccc4OC(F)(F)F)c(N)c3cc2C1,"inconclusive: 14.1 µM [inhibitor, partial curve]"
